Assay results taken from PubChem BioAssay AID504832 (National Center for Advancing Translational Sciences (NCATS), 2011).
Where “and” joins values, the source holds several entries; their conditions need not be identical. Equal values may be shown once. Hit rate of the full screen: of about 310,000 compounds, about 18,000 (5.8%) were called active. The shares of active, inactive and inconclusive entries below differ from those in the screen. The call rests on the fitted dose curve; in most records, active means well fitted inhibition curve with a large enough effect; inconclusive means small, poorly fitted or top-dose-only effect, or another doubt; inactive means no such curve, though single readings can be large or run the other way. Potencies beside an inconclusive call are fits to weak or partial responses and may not hold up.

assay: Primary qHTS for delayed death inhibitors of the malarial parasite plastid, 48 hour incubation; details: P. falciparum luciferase growth in erythrocytes; series mostly up to 28.7 µM; activity change, negative = inhibition: at the top concentration
How it was run: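 Firefly luciferase activity from engineered P. falciparum reports growth; inhibitors lower the luminescent signal. Cultures contained 2% hematocrit erythrocytes at 0.1% final parasitemia.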
On the % scale 0 is the no-effect control and ±100 the full control effect; potency means the concentration at half of the fitted maximal effect; tags describe the fitted curve by direction and shape.

| SMILES | Potency | activity change, negative = inhibition |
| --- | --- | --- |
| CCc1ccc(C(=O)NNc2ccc(C)c(Cl)c2)cc1 | inconclusive: 3.7 µM [inhibitor, partial curve, poor fit] | – |
| CCCCn1nc(C(=O)Oc2ccc3c(C)cc(=O)oc3c2)c2ccccc2c1=O | inconclusive: 8.28 µM [inhibitor, partial curve] | – |
| O=C(NCCc1c[nH]c2ccccc12)[C@@H]1C[C@H]1[C@@H](NP(=O)(c1ccccc1)c1ccccc1)c1ccccc1 | inconclusive: 0.828 µM [inhibitor, partial curve, poor fit] | – |
| CCCCn1c(-c2cccc(C)c2)nc2cc3[nH]c(=O)c(C(C)C)nc3cc21 | active: 9.28 µM | – |
| Cc1ccc(NC(=O)c2ccc([N+](=O)[O-])cc2Cl)nc1 | – | inactive: 234% |
| COc1ccc(C)cc1NC(=O)NNC(=O)C1CCC(C(C)(C)C)CC1 (stereo not drawn) | inconclusive: 20.8 µM [inhibitor, partial curve, poor fit] | – |
| CC1Cc2ccccc2N1C(=O)c1cc2sccc2n1Cc1ccc(F)cc1 (stereo not drawn) | active: 11.7 µM | – |
| C=CCNC(=O)c1ccc2nc(-c3ccccc3)c(-c3ccccc3)nc2c1 | inconclusive: 10.4 µM [inhibitor, partial curve] | – |
| CCC(C)C(NC(=O)C1CCC(C)CC1)C(=O)Nc1ccc(OC)cc1 (stereo not drawn) | inconclusive: 16.5 µM [inhibitor, single point] | – |
| Cc1cccc(-n2c(C)cc(/C=N\NC(=O)c3ccco3)c2C)c1 | active: 8.28 µM | – |
| CCOC(=O)c1ccc(N2C(=O)CC(NC3CCN(C(=O)c4cccc(Cl)c4)CC3)C2=O)cc1 (stereo not drawn) | inconclusive: 18.5 µM [inhibitor, single point] | – |
| CCCS(=O)(=O)NCCc1cc2c(OC)ccc(OC)c2[nH]c1=O | – | inactive: 8.04% |
| COCCNC(=O)CCc1c(C)nc2c(c(C)nn2-c2ccc(C)c(C)c2)c1C | inconclusive: 8.28 µM [inhibitor, partial curve, poor fit] | – |
| CCOc1ccc2c(c1)C(N(CCN1CCOCC1)C(=O)Nc1ccccc1)CC(C)(C)O2 (stereo not drawn) | – | inactive: -19% |
| Cc1cccn2c(=O)c(/C=C(\C#N)S(=O)(=O)c3ccccc3)c(N3CCN(Cc4ccccc4)CC3)nc12 | inconclusive: 18.5 µM [inhibitor, single point] | – |
| CCCCn1c(N)c(N(CCOC)C(=O)c2cc3c(s2)CCC(C)C3)c(=O)[nH]c1=O (stereo not drawn) | inconclusive: 18.5 µM [inhibitor, single point] | – |
| CC(C)(C)NC(=O)CSc1ncnc2c1nnn2Cc1ccccc1Cl | inconclusive: 8.28 µM [inhibitor, partial curve] | – |
| Cc1ccccc1S(=O)(=O)NCc1ccc(N2CCN(C)CC2)cc1 | – | inactive: 20.8% |
| Cc1ccc(C(c2nnnn2Cc2cccs2)N2CCN(C(=O)c3ccco3)CC2)cc1 (stereo not drawn) | inconclusive: 8.28 µM [inhibitor, partial curve] | – |
| Cc1cc(C(=O)NCCCn2ccnc2)sc1-c1ccccc1 | inconclusive: 11.7 µM [inhibitor, single point] | – |
| CCn1cc(C(=O)O)c(=O)c2cc(F)c(N3CCN(C(=S)NC(=O)c4ccc(Br)cc4)CC3)cc21 | inconclusive: 8.28 µM [inhibitor, partial curve] | – |
| N/C(=N\OC(=O)c1cc(Br)ccc1Cl)c1cccnc1 | inconclusive: 18.5 µM [inhibitor, single point] | – |
| C=CCCCCCCCCC(=O)N1CCN(c2cc3c(cc2F)c(=O)c(C(=O)O)cn3CC)CC1 | inconclusive: 8.28 µM [inhibitor, partial curve, poor fit] | – |

| SMILES | Potency | activity change, negative = inhibition |
| --- | --- | --- |
| CCn1cc(C(=O)O)c(=O)c2cnc(N3CCN(C(=S)NC(=O)c4ccc(OC)cc4)CC3)nc21 | – | inactive: -7.36% |
| COc1ccccc1CCNS(=O)(=O)CCNC(=O)c1ccccc1 | – | inactive: 7.8% |
| O=C(NC1CCCC1)C(c1c[nH]c2ccccc12)N(C(=O)Cn1nnc(-c2ccc(Cl)cc2)n1)c1ccccc1 (stereo not drawn) | inconclusive: 4.65 µM [inhibitor, partial curve, poor fit] | – |
| O=c1cc(NS(=O)(=O)c2ccccc2)nc(SCc2ccc(Cl)cc2)[nH]1 | inconclusive: 10.4 µM [inhibitor, single point] | – |
| O=C(CN1C(=O)CC(c2ccco2)Sc2ccccc21)Nc1ccc2c(c1)OCCO2 (stereo not drawn) | – | inactive: -15.5% |
| COc1ccc(C(=O)C[n+]2cccc(Br)c2)cc1 | inconclusive: 20.8 µM [inhibitor, partial curve, poor fit] | – |
| COc1cc(C(C(=O)NC2CCCCC2)N(C(=O)Cc2c[nH]c3ccccc23)c2ccccc2C)cc(OC)c1OC (stereo not drawn) | active: 13.1 µM | – |
| O=C(Cn1[nH]c(=O)c2ccccc2c1=O)OCC(=O)N1CCCc2ccccc21 | – | inactive: 9.76% |
| COCCC(=O)N1CCC(Oc2ccc(C(=O)NC3CCOC(C)(C)C3)cc2)CC1 (stereo not drawn) | – | inactive: 23.5% |
| N/C(=N\OC(=O)C12CC3CC(CC(C3)C1)C2)c1ccccn1 | inconclusive: 10.4 µM [inhibitor, single point] | – |
| CCOc1cccc(CNc2ccc(O)cc2)c1OCc1ccc(Cl)cc1 | inconclusive: 4.15 µM [inhibitor, full curve, poor fit] | – |
| CN(C)CCCNc1ncnc2c1c(-c1ccccc1)cn2-c1ccccc1 | inconclusive: 8.28 µM [inhibitor, partial curve, poor fit] | – |
| CC1CNCCN1S(=O)(=O)c1cccc2cnccc12 (stereo not drawn) | inactive and inconclusive: 3.7 µM [inhibitor, partial curve, poor fit] | – |
| COC(=O)CNC(c1ccccc1)c1cc(Br)ccc1NS(=O)(=O)c1ccc(C)cc1 (stereo not drawn) | active: 11.7 µM | – |
| O=C(c1ccccc1)[C@@H]1[C@@H](C(=O)c2ccc(F)cc2)[C@@]2(C(=O)Nc3ccccc32)[C@H]2c3ccccc3C=CN12 | active: 14.7 µM | – |
| COC(=O)CCC(=O)OC1(C)C(=O)C=C2C=C(C3CC3)N(Cc3ccccc3)C=C2C1=O (stereo not drawn) | inconclusive: 18.5 µM [inhibitor, single point] | – |
| O=C(C[n+]1ccccc1)Nc1c(Cl)cc(Cl)cc1Cl | – | inactive: 37.8% |
| O=C(N/N=C/c1cc(Br)ccc1O)c1ccncc1 | active: 2.62 µM | – |
| CCOc1cccc(-c2cc(C(=O)NN)[nH]n2)c1 | – | inactive: 18.8% |
| COc1c(C)cc(C(=O)C2CCCN(C(=O)c3ccoc3)C2)cc1C (stereo not drawn) | – | inactive: 23.9% |
| CC(C)(CO)NCC(=O)Nc1cc(C(F)(F)F)cc(NC(=O)CNC(C)(C)CO)c1Cl | – | inactive: -8.46% |
| COc1ccc(/C(O)=C2\C(=O)C(=O)N(c3cc(C)on3)C2c2ccc(OC)c(OC)c2)cc1OC (stereo not drawn) | – | inactive: 3.75% |
| CCNCC(=O)N1c2ccccc2CCc2ccc(NC(C)=O)cc21 | – | inactive: 10.9% |

| SMILES | Potency | activity change, negative = inhibition |
| --- | --- | --- |
| Cc1ccc(C)c(OCC(=O)N(Cc2nnc(-c3ccccc3Cl)o2)C2CC2)c1 | inconclusive: 0.165 µM [inhibitor, full curve, poor fit] | – |
| Cc1ccc2nc(-c3cccs3)oc(=O)c2c1 | inconclusive: 0.0586 µM [inhibitor, partial curve, poor fit] | – |
| CC(C)(C)c1ccc(C(=O)N/N=C/c2ccc(OCCCF)cc2)cc1 | inconclusive: 2.94 µM [inhibitor, partial curve] | – |
| O=C(c1cc(COc2c(F)cccc2F)on1)N1CCC(c2ccncc2)CC1 | inconclusive: 0.738 µM [inhibitor, full curve] | – |
| Cc1cc(C)n2c(SCC(=O)Nc3ccc(Cl)cn3)nnc2n1 | inconclusive: 0.0029 µM [inhibitor, full curve, poor fit] | – |
| c1ccc2c(N3CCCC3)nc(-c3ccncc3)nc2c1 | inconclusive: 9.28 µM [inhibitor, partial curve] | – |
| O=C(C1CCCN(S(=O)(=O)c2ccc(F)cc2)C1)N1CCCCC1 (stereo not drawn) | – | inactive: -21.9% |
| CCOC(=O)CN(Cc1sccc1C)C(=O)Nc1ccc(OC)cc1OC | – | inactive: -0.224% |
| CNC(=O)C1CCN(S(=O)(=O)c2c(C)noc2/C=C/c2ccccc2F)CC1 | inconclusive: 18.5 µM [inhibitor, single point] | – |
| O=C(NC(=O)N1CCN(c2ccccc2)CC1)c1ccc(Cl)cc1 | – | inactive: 196% |
| COc1cccc(C(=O)N2CCC(n3nccc3NC(=O)CCOc3ccccc3)CC2)c1 | – | inactive: 2.69% |
| O=c1[nH]ncc(N/N=C\c2cccnc2)c1Cl | – | inactive: 12.6% |
| C=CCNc1ncnc2c1[nH]c1ccc(C)cc12 | inconclusive: 18.5 µM [inhibitor, single point] | – |
| COc1ccc([N+](=O)[O-])cc1NC(=O)CCNC(=O)Cn1ccc2ccccc2c1=O | inconclusive: 0.233 µM [inhibitor, partial curve, poor fit] | – |
| COC(=O)c1ccc(CNC(=O)c2ccc(S(=O)(=O)N(C)c3ccccc3OC)cc2)cc1 | inconclusive: 10.4 µM [inhibitor, single point] | – |
| CCOC(=O)c1ccc(NC(=O)c2cc3c(s2)CCC3)cc1 | inconclusive: 3.29 µM [inhibitor, full curve] | – |
| CCN(CC)c1ccc(/C=C/C(=O)c2cccnc2)cc1 | active: 0.928 µM | – |
| Clc1ccccc1Cn1nnc(-c2ccccc2)n1 | inconclusive: 18.5 µM [inhibitor, single point] | – |
| CN(CCNC(=O)c1ccc(N2CCCC2=O)cc1)CCc1ccccc1 | inconclusive: 18.5 µM [inhibitor, single point] | – |
| C[N+](C)(C)CC(=O)Nc1ccc(Cl)cc1C(=O)c1ccccc1 | active: 11.7 µM | – |
| Cc1ccc(S(=O)(=O)N2[C@@H](c3ccccc3F)C(C(=O)O)=CC[C@H]2c2cccc(Cl)c2)cc1 | inconclusive: 13.1 µM [inhibitor, single point] | – |
| CC(=O)c1ccc(S(=O)(=O)N(C)CCCC(=O)NCc2ccc3c(c2)OCO3)cc1 | inconclusive: 18.5 µM [inhibitor, single point] | – |
